{
  "source": "patent US20250205353A1",
  "about": "(SYNAFFIX B V, published 2025)",
  "target": "T1, Nectin-4 on SK-BR-3 cells (UniProt Q96NY8 32-510, limits assumed)",
  "T1 sequence (looked up)": "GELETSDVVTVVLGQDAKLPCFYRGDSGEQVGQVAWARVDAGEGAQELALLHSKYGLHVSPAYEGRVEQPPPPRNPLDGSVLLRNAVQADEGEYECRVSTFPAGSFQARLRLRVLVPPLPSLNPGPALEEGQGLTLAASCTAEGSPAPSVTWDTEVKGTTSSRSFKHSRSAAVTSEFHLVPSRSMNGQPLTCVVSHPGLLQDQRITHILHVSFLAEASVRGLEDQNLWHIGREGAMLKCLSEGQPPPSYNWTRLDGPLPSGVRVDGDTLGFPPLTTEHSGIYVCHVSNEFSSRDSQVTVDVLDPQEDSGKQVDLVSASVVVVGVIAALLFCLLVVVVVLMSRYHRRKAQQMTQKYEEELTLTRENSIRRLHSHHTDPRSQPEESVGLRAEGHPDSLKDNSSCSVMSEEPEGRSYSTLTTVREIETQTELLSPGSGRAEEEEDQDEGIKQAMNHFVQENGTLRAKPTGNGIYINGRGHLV",
  "experiment": "cell-based or functional assay",
  "data": [
    {"binder": "B12-3 (other, linker-payload 3 (BCN-HS-PEG2-HS-(va-PAB-Ex)2, exatecan) clicked to 6-N3-GalNAc on the trimmed core GlcNAc of the heavy-chain glycan; average DAR 3.75, negative control; also called conjugate B12-3; control ADC B12-3) heavy: QVQLVQSGAEVKKPGASVKVSCQASGYRFSNFVIHWVRQAPGQRFEWMGWINPYNGNKEFSAKFQDRVTFTADTSANTAYMELRSLRSADTAVYYCARVGPYSWDDSPQDNYYMDVWGKGTTVIVSS[here human IgG1 constant region without letters] light: EIVLTQSPGTLSLSPGERATFSCRSSHSIRSRRVAWYQHKPGQAPRLVIHGVSNRASGISDRFSGSGSGTDFTLTITRVEPEDFALYYCQVYGASSYTFGQGTKLERKRTVAAPSVFIFPPSDEQLKSGTASVVCLLNNFYPREAKVQWKVDNALQSGNSQESVTEQDSKDSTYSLSSTLTLSKADYEKHKVYACEVTHQGLSSPVTKSFNRGEC", "values": [
      {"measurement": "IC50 (nM), in vitro cytotoxicity on SK-BR-3 cells (ATPlite luminescence)", "result": "> 100", "unit": "nM"}
    ]}
  ]
}
